Results taken from PMC4336329 (PLoS ONE, 2015).
The whole screen tested about 310,000 compounds, of which about 2,200 (0.71%) showed an effect of 50% or more. Effects have a minus sign here. Some of the results follow.

Molecular target: human ether-à-go-go-related gene (hERG) potassium channel (human, UniProt Q12809)
Experiment: primary screen, population patch clamp on CHO cells stably expressing hERG

human ether-à-go-go-related gene (hERG) potassium channel, sequence (Q12809 whole entry, looked up): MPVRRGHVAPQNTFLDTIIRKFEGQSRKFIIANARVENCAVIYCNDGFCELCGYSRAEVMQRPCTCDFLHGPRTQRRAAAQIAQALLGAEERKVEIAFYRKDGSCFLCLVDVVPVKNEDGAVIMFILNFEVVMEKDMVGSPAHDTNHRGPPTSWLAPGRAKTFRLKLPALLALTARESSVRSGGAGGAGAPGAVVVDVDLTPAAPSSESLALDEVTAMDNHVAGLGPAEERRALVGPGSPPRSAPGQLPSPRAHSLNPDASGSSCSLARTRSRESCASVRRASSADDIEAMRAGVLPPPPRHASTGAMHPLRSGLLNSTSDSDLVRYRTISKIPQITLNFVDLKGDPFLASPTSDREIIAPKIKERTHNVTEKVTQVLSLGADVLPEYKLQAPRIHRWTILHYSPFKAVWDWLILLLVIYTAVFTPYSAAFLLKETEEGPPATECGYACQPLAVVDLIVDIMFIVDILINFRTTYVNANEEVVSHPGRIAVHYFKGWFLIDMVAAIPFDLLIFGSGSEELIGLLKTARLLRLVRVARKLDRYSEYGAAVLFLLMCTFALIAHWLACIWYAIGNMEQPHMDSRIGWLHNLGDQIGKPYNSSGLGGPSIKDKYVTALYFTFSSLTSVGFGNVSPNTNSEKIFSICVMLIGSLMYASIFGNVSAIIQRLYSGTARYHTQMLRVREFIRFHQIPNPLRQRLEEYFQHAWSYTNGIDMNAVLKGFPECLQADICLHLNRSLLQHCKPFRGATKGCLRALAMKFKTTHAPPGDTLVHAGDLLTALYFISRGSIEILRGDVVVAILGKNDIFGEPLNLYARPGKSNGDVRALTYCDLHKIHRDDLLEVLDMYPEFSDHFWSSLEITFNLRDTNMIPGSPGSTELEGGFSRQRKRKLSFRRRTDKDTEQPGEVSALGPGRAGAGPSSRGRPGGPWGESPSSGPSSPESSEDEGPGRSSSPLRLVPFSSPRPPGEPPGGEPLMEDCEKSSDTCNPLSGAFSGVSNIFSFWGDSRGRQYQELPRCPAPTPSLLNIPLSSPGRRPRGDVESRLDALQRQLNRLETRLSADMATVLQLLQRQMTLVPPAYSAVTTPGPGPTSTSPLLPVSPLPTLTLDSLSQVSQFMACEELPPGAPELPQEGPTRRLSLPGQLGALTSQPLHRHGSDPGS

| SMILES | hERG current change (%, negative = inhibition) at 1uM [%] |
| --- | --- |
| c1coc(-c2nnc(NC3=NCCC3)o2)c1 | 10.2 |
| CN1CCN(c2nc(-c3cccs3)cc(C(F)(F)F)n2)CC1 | 0.412 |
| COCCN1C(=O)N[C@@H](c2cccc(C(F)(F)F)c2)[C@H](C(C)=O)[C@H]1C | 13.8 |
| O=C(CN1C(=O)NC2(CCCC2)C1=O)Nc1ccc(F)c(Cl)c1 | 14 |
| Cc1ccc(Nc2nc(-c3cccnc3)nc3ccccc23)cc1 | 4.43 |
| Cc1cccc(NC(=O)CNC(=O)c2sc3ccccc3c2Cl)n1 | 7.44 |
| COc1c(C)cc(C(=O)C2CCCN(C(=O)c3cc(C)nc(C)n3)C2)cc1C (stereo not shown) | 16.1 |
| O=C(NCCc1ccccc1)c1ccc(CS(=O)(=O)Cc2ccc(F)cc2)o1 | 17.3 |
| Nc1nc(Cl)cc(Nc2ccccc2Cl)n1 | 13.4 |
| Cc1cc(C)c(NC(=O)CN2CCN3CCCC3C2)c(C)c1.O=C(O)/C=C/C(=O)O (stereo not shown) | -1.48 |
| CSCCC(NC(=O)c1ccccc1Br)C(=O)NCC(C)(C)N1CCOCC1 (stereo not shown) | 0.0891 |
| Cc1nnc(C)c2c(C)n(-c3ccccc3N)c(C)c12 | 5.4 |
| CC1CCN(CCCNC(=O)c2coc3nc4ccccc4nc23)CC1 | 5.14 |
| COc1ccc(NC(=O)[C@@H]2CC=C[C@@H]3CCN(Cc4ccc(Cl)c(Cl)c4)C(=O)[C@@H]32)cc1 | 8.2 |
| CC1=C(C(=O)OC(C)C)C(c2ccc(Cl)cc2)n2c(s/c(=C\c3ccc(OCC(=O)O)cc3)c2=O)=N1 (stereo not shown) | 12.6 |
| COc1ccc(C(=O)NCc2nnc(SCC(=O)Nc3cc(C)cc(C)c3)o2)cc1OC | 0.399 |
| COc1ccc(-n2nc(C(=O)NCC(=O)Nc3cc(OC)ccc3OC)c3ccccc3c2=O)cc1 | 15.1 |
| COc1ccc(NC(=O)CC2Nc3cccc4cccc(c34)NC2=O)cc1 (stereo not shown) | -1.28 |
| CN(Cc1nnc(-c2ccc(F)cc2)o1)c1ccccc1 | 5.9 |
| Cc1ccc(-c2nnc(N3CCCCC3)c3ccccc23)cc1 | 6.13 |
| CCSc1ccccc1C(=O)Nc1cc(OC)c(OC)c(OC)c1 | 5.05 |
| COc1cc(NC(=O)C2CCN(S(=O)(=O)c3ccc4c(c3)CC(C)N4C(C)=O)CC2)cc(OC)c1OC (stereo not shown) | 12.5 |
| CC12CCC(C(=O)NNc3ccc([N+](=O)[O-])cc3)(CC1=O)C2(C)C (stereo not shown) | 3.53 |
| Cc1ccnc2nc(C(=O)OCC(=O)N(CC(C)C)CC(C)C)nn12 | 3.35 |
| Nc1ccn(Cc2ccccc2)n1 | 4.91 |
| Nc1nc2ccc(N3CCOCC3)cc2s1 | -0.364 |
| CO/N=C/c1ccc(N2CCN(C(=O)c3ccc(Cl)cc3Cl)CC2)c([N+](=O)[O-])c1 | -18.5 |
| Cc1cc(/C=N/NC(=O)c2ccc(O)cc2)c(C)n1CC(C)C | -0.384 |

| SMILES | hERG current change (%, negative = inhibition) at 1uM [%] |
| --- | --- |
| CN(Cc1ccccc1)c1ccc(N2C(=O)CCC2=O)cc1[N+](=O)[O-] | 7.39 |
| C/C(=N/NC(=O)c1ccc(Cl)cc1Cl)c1cccnc1 | 18.6 |
| Cc1ccc(CN2C(=O)CCC2C(=O)N2CCN(c3ccc(F)cc3)CC2)cc1 (stereo not shown) | 2.62 |
| COc1cc(/C=N/NC(=O)CNC(=O)c2ccco2)ccc1O | 5.36 |
| CN1CCN(C(=O)c2cc3ccccc3cc2O)CC1 | 3.96 |
| COc1cc(/C=C2\SC(=S)N(C(Cc3ccccc3)C(=O)O)C2=O)ccc1O (stereo not shown) | 12.1 |
| CC1(NC(=S)NCCCCCCNC(=S)NC2(C)CCS(=O)(=O)C2)CCS(=O)(=O)C1 (stereo not shown) | 9.73 |
| CCOCCCNC(=O)C1(O)c2ccccc2NC(=O)N1c1ccc(Cl)cc1 (stereo not shown) | 7.28 |
| CCOP(=O)(/C=C(\Cl)c1ccccc1)C(O)c1ccc(F)cc1 (stereo not shown) | 9.42 |
| COc1cccc(/C=C/C(=O)Nc2ccc3[nH]c(=O)[nH]c3c2)c1 | 12 |
| O=C(NNC(=O)c1ccccc1-n1cccc1)c1cccc(Cl)c1 | 0.959 |
| COc1ccc(C(=O)N/N=c2\oc3ccccc3cc2C(=O)NCc2ccccc2)cc1 | 6.2 |
| Cc1cccc(-c2csc(NC(=O)c3cnccn3)c2C(=O)OC(C)C)c1 | 5.34 |
| CCCOc1ccc(-c2nc(=S)[nH][nH]2)cc1 | 11.3 |
| CCOc1ccc(C(=O)NC(=S)Nc2ccccc2N2CCCCC2)cc1[N+](=O)[O-] | 8.22 |
| COc1ccc(CC(=O)OCC(=O)Nc2ncc(Cl)cc2Cl)cc1 | 7.84 |
| Cc1ccc(CNC(=O)c2cc3c(=O)n4ccccc4nc3n(Cc3ccco3)c2=N)cc1 | -38.1 |
| Cc1cc(OCC(=O)Nc2ccc(S(=O)(=O)N3CCN(C)CC3)cc2)ccc1Cl | 8.45 |
| COc1ccc(CN2CCCCC2C)cc1OC (stereo not shown) | -2.1 |
| NC(=O)C1CCN(C(=O)CN2CCN(c3cccc(C(F)(F)F)c3)CC2)CC1 | 2.68 |
| O=C(CSc1nc(=O)n2ccccc2n1)NCc1ccc(F)cc1 | 16.2 |
| Cn1c(NC(=O)c2ccc(C(C)(C)C)cc2)cc(=O)n(C)c1=O | 15.8 |
| COCCCNCCC(CCC(C)C)c1ccc2c(c1)OCO2.Cl (stereo not shown) | -85.8 |
| CCc1nnc(NC(=O)CSc2nnc(-c3ccc(S(=O)(=O)N4CCCC4)cc3)n2CC)s1 | 6.83 |
| COc1ccc(-c2ncc3ccccn23)cc1 | 5.62 |
| Cc1c(C2(c3c(C)n(C)n(-c4ccccc4)c3=O)C(=O)Nc3ccc(F)cc32)c(=O)n(-c2ccccc2)n1C | 14.8 |
| COc1ccccc1OCCNC(=O)Cc1ccc(Cl)c(Cl)c1 | -8.28 |
